According to patent CN114028562A:

Biological target: 天然TSLP
Assay: cell-based or functional assay

IC50, inhibition of natural TSLP-induced STAT5 phosphorylation in SW756-STAT5-Luciferase reporter cells: 0.462 ng/mL
B1: QX008N(HZD8G2-57) (antibody, part only; not given: Light chain, part only)
heavy: EVQLVESGGGLVQPGGSLRLSCAASGFSLSSYYMSWVRQAPGKGLEWVGFISYGGSAYHATWAQGRFTISKDNSKNTLYLQMNSLRAEDTAVYYCAREFRSMTYGAEWGIWGQGTLVTVSS[human IgG1 constant region not shown]
